Experimental data as given in the RNAGym collection of RNA variant scans (doi:10.1093/nar/gkz1192).
The source gives no read counts; variants with many changes may rest on few reads.

B1: CPEB3 Ribozyme (parent)
chain: UAACAGGGGGCCACAGCAGAAGCGUUCACGUCGCAGCCCCUGUCAGAUUCUGGUGAAUCUGCGAAUUCUGCUGUAUAUCUC

Variants of: B1
Experiment: self-cleavage, relative activity (ratio to wild type); higher = more cleavage; in vitro, sequencing
Outline: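 For each CPEB3 ribozyme variant, relative activity is its cleaved/total read fraction divided by the unmutated ribozyme's. Barcoded error-prone PCR libraries were transcribed by T7 RNA polymerase (5 hours, 37°C) and held in DNase I for 15 min before an EDTA stop, with cleavage occurring throughout. Template-switching reverse transcription and Illumina sequencing were used to read the RNAs. A 5-read minimum applied, and results are the mean of three batches.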
UAACAGGGGGCCACAGCAGAAGCGUUCACGUCGCAGCCCCUGUCAGAUUCCGGUGAAUCUGCGGAUUCUGCUGUAAAUCUC [U51C A64G U76A] gave a self-cleavage of 1.13.
UAACAGGGGGCCACAGCAGAAGCGUUCACGUCGCAGCCCCUGUCAGAUUCCGGUGAAUCUGCGGAUUCUGCUGUAUACCUC [U51C A64G U78C] showed a self-cleavage of 0.71.
Variant UAACAGGGGGCCACAGCAGAAGCGUUCACGUCGCAGCCCCUGUCAGAUUCCGGUGAAUCUGCGUAUUCUGCUGUAUAACCC [U51C A64U U78A U80C] has a self-cleavage of 0.52.
UAACAGGGGGCCACAGCAGAAGCGUUCACGUCGCAGCCCCUGUCAGAUUCCGGUGAAUCUGCGACUCCUGCUGUAUAUCUC [U51C A65C U67C] gave a self-cleavage of 0.35.
Work on UAACAGGGGGCCACAGCAGAAGCGUUCACGUCGCAGCCCCUGUCAGAUUCCGGUGAAUCUGCGAGUUCUGCUGUUUAUCUC [U51C A65G A75U] yielded a self-cleavage of 0.65.
UAACAGGGGGCCACAGCAGAAGCGUUCACGUCGCAGCCCCUGUCAGAUUCCGGUGAAUCUGCGAGUUCUGCUGUAUUUCUC [U51C A65G A77U] showed a self-cleavage of 0.39.
For UAACAGGGGGCCACAGCAGAAGCGUUCACGUCGCAGCCCCUGUCAGAUUCCGGUGAAUCUGCGAAUUUCGCUGUAUAUCUC [U51C C68U U69C], the self-cleavage was 0.52.
Work on UAACAGGGGGCCACAGCAGAAGCGUUCACGUCGCAGCCCCUGUCAGAUUCCAGAGAAUCUGCGAAUUCUGCUGUAUAUCUC [U51C G52A U54A] yielded a self-cleavage of 1.04.
Variant UAACAGGGGGCCACAGCAGAAGCGUUCACGUCGCAGCCCCUGUCAGAUUCCAGUGAAUCUGCGAACUCCGCUGUAUAUCUC [U51C G52A U66C U69C] has a self-cleavage of 0.42.
UAACAGGGGGCCACAGCAGAAGCGUUCACGUCGCAGCCCCUGUCAGAUUCCUGUGAAUCUGCGAACUCUGCUGUAUAUCUC [U51C G52U U66C] showed a self-cleavage of 0.66.
In the case of UAACAGGGGGCCACAGCAGAAGCGUUCACGUCGCAGCCCCUGUCAGAUUCCGAUGAAUCUCCGAAUUCUGCUGUAUGUCUC [U51C G53A G61C A77G], the self-cleavage is reported as 0.75.
UAACAGGGGGCCACAGCAGAAGCGUUCACGUCGCAGCCCCUGUCAGAUUCCGAUGAAACUGCGUAUUCUGCUGUAUAUCUC [U51C G53A U58A A64U] gave a self-cleavage of 0.29.
Variant UAACAGGGGGCCACAGCAGAAGCGUUCACGUCGCAGCCCCUGUCAGAUUCCGGUGAAUCUGCAAAUCCCGCUGUAUAUCUC [U51C G63A U67C U69C] has a self-cleavage of 0.49.
UAACAGGGGGCCACAGCAGAAGCGUUCACGUCGCAGCCCCUGUCAGAUUCCGGUGAAUCUGCGAAUUCUGCUAUAUACCUU [U51C G73A U78C C81U] gave a self-cleavage of 1.32.
With UAACAGGGGGCCACAGCAGAAGCGUUCACGUCGCAGCCCCUGUCAGAUUCCGGAGAAUCUGCGAAUUCUGCUGUAUGUCUC [U51C U54A A77G] the self-cleavage was 1.15.
With UAACAGGGGGCCACAGCAGAAGCGUUCACGUCGCAGCCCCUGUCAGAUUCCGGAGAAUCAGCGAAUUCUGCUGUAUAUCUC [U51C U54A U60A] the self-cleavage was 0.57.
For UAACAGGGGGCCACAGCAGAAGCGUUCACGUCGCAGCCCCUGUCAGAUUCCGGAGAAUCUGCGAAUCCUGCUGUAUAUCUC [U51C U54A U67C], the self-cleavage was 0.89.
For UAACAGGGGGCCACAGCAGAAGCGUUCACGUCGCAGCCCCUGUCAGAUUCCGGAGAAUCUGCGAAUUCUGCAGUAUAUCUC [U51C U54A U72A], the self-cleavage was 0.99.
With UAACAGGGGGCCACAGCAGAAGCGUUCACGUCGCAGCCCCUGUCAGAUUCCGGCGAAUCUGCGUAUUCUGCCGUAUAUCUC [U51C U54C A64U U72C] the self-cleavage was 0.52.
With UAACAGGGGGCCACAGCAGAAGCGUUCACGUCGCAGCCCCUGUCAGAUUCCGGCGAAUCUGAGAAUUCUGCUGUAUAUCUC [U51C U54C C62A] the self-cleavage was 0.3.
In the case of UAACAGGGGGCCACAGCAGAAGCGUUCACGUCGCAGCCCCUGUCAGAUUCCGGCGAAUCUGCGAAUUCUGAUGUAUAUCUC [U51C U54C C71A], the self-cleavage is reported as 0.38.
UAACAGGGGGCCACAGCAGAAGCGUUCACGUCGCAGCCCCUGUCAGAUUCCGGCGAACCUGCGAAUUCAGCCGUAUACCUC [U51C U54C U58C U69A U72C U78C] showed a self-cleavage of 0.29.
UAACAGGGGGCCACAGCAGAAGCGUUCACGUCGCAGCCCCUGUCAGAUUCCGGCGAAUCUGCGAACUCUGCUGUAUAUCUC [U51C U54C U66C] gave a self-cleavage of 0.44.
Variant UAACAGGGGGCCACAGCAGAAGCGUUCACGUCGCAGCCCCUGUCAGAUUCCGGCGAAUCUGCGAAUUCUGCGGUAUAUCUC [U51C U54C U72G] has a self-cleavage of 0.62.
With UAACAGGGGGCCACAGCAGAAGCGUUCACGUCGCAGCCCCUGUCAGAUUCCGGCGAAUCUGCGAAUUCUGCUGUAUACCUC [U51C U54C U78C] the self-cleavage was 1.08.
Work on UAACAGGGGGCCACAGCAGAAGCGUUCACGUCGCAGCCCCUGUCAGAUUCCGGGGAAUCUGGGAAUUCUGCUGUAUAUCUC [U51C U54G C62G] yielded a self-cleavage of 0.26.
Variant UAACAGGGGGCCACAGCAGAAGCGUUCACGUCGCAGCCCCUGUCAGAUUCCGGUGAACCUGCGAGUUCUGCCGUAUAUCUC [U51C U58C A65G U72C] has a self-cleavage of 0.32.
Work on UAACAGGGGGCCACAGCAGAAGCGUUCACGUCGCAGCCCCUGUCAGAUUCCGGUGAACCAGCGAAUUCUGCUGUAUAUCUC [U51C U58C U60A] yielded a self-cleavage of 0.22.
With UAACAGGGGGCCACAGCAGAAGCGUUCACGUCGCAGCCCCUGUCAGAUUCCGGUGAACCUGCGAACUCUGCUGUAUAUCUC [U51C U58C U66C] the self-cleavage was 0.19.
In the case of UAACAGGGGGCCACAGCAGAAGCGUUCACGUCGCAGCCCCUGUCAGAUUCCGGUGAACCUGCGAAUUCUGCUGUAUAGCUC [U51C U58C U78G], the self-cleavage is reported as 0.31.
For UAACAGGGGGCCACAGCAGAAGCGUUCACGUCGCAGCCCCUGUCAGAUUCCGGUGAAUCAGCGGAUUCUGCUGUAUAUCUC [U51C U60A A64G], the self-cleavage was 0.21.
With UAACAGGGGGCCACAGCAGAAGCGUUCACGUCGCAGCCCCUGUCAGAUUCCGGUGAAUCAGCGAAUUCCCCUGUAUAUCCC [U51C U60A U69C G70C U80C] the self-cleavage was 0.41.
In the case of UAACAGGGGGCCACAGCAGAAGCGUUCACGUCGCAGCCCCUGUCAGAUUCCGGUGAAUCCGCGAGUUCUGCUAUAUAUCUU [U51C U60C A65G G73A C81U], the self-cleavage is reported as 0.19.
With UAACAGGGGGCCACAGCAGAAGCGUUCACGUCGCAGCCCCUGUCAGAUUCCGGUGAAUCCGAGAAUUCUGAUGUAUAUCUC [U51C U60C C62A C71A] the self-cleavage was 0.28.
